# According to the supplement of paper PMC11417369:
# ± gives the standard deviation of the averaged measurements. The list shows a part of the results.
# Tested on: PfAP2-EXP AP2 domain (GST-tagged)
# Assay: gcPBM binding intensity (ln(normalized median fluorescence intensity)); higher = stronger DNA binding
# Summary of the method: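 An Agilent 4 × 180k array of primer-extended double-stranded 36-bp intergenic genomic probes, with negative controls, was incubated for 1 h with GST-tagged P. falciparum DNA-binding domains expressed in E. coli. Alexa488 anti-GST antibody detected bound protein, scanned at 488 nm. Binding intensity is the highest Masliner-normalised natural-log median intensity across replicate spots of either probe orientation.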
row,Sequence,gcPBM binding intensity (ln)
1,AAATATTATACAAAAAAAAAAAAAAAAAAAATATAT [CACACA_negctrl_site52],8.23 ± 0.3
2,ATTTTGTATATATTTTGTACATATTTTGTATATATT [XGTACX_site885],8.68 ± 0.3
3,TTGTTTTTAAGAAAAACACACACTCCTGTTATTTTA [CACACA_site9230],8.37 ± 0.45
4,GACCCAATGAAAAGGTCACACATTTTTTCTTTTCGA [CACACA_site5074],8.16 ± 0.36
5,AAAAATAAAAAGAATTGTACATATAAATCATATACA [XGTACX_site6860],8.26 ± 0.34
6,TAAAAATATATAAACAGTACATAAATTAAATAAATA [XGTACX_site6962],8.62 ± 0.27
7,AAAGTTTTTACCAAGTGTACATATATATATATATAT [XGTACX_site5786],10.1 ± 0.61
8,GTTAAAATTTGTCAATGTACAGAAATAATAAAAAAA [XGTACX_site1879],8.66 ± 0.4
9,TATTTTTTTTAGCGTACATGCAAAAAAAAAAAAAAA [TGCATGCA_site555],8.54 ± 0.29
10,GTTTATTTATTTTATGTGCACATATAACAAAAAAAA,9.02 ± 0.11
11,TTTTTTCTTTAATACTCAATATGATAAAAGTAACAC [XGTACX_negctrl_site163],8.41 ± 0.38
12,TCCAATTAAATATATGAACACACATGTGAACTTTCT [CACACA_site9318],8.47 ± 0.46
13,ATGTAAATGTTATTATGTACATATTTATTCTTCAAA [XGTACX_site7377],8.58 ± 0.35
14,TTAAGTCATAAATAAAGTACATAAATATAATATATA [XGTACX_site6304],8.46 ± 0.2
15,GGGGGTAGGGGAAGAAGTACAATGATCACTACAGTA [XGTACX_site1169],9.85 ± 0.29
16,TTTTTTATTAAAAGCGAAAAAAATGAAAACTTTTTT [GTGCAC_negctrl_site605],8.15 ± 0.46
17,GAAGTAGATGGAAAAGTGCACTGTAATGGTTATATT,9.13 ± 0.34
18,TTTTTAATTAACTTTGTAAACTTATATATATATATA [TGCATGCA_negctrl_site311],10.1 ± 0.2
19,TTAAAGCACCCATGCACACACACAAGGGAAAAGAAA [CACACA_site4289],9.35 ± 0.74
20,AAGGAATATTAAGTGGGTACTAAAAAAAAATTAATT [XGTACX_site331],8.7 ± 0.38
21,TGTATATAGAAACATACACACATATTAATTTTACAT [CACACA_site3126],8.32 ± 0.41
22,CGTATGCGTATATACACACCCACGTATATATATAAA [CACACA_site3200],8.61 ± 0.4
23,ATTTTTAATCATTTACAACCTAGTGATTATACAAAT [CACACA_negctrl_site1089],8.51 ± 0.35

row,Sequence,gcPBM binding intensity (ln)
1,ATATAATAATTGTACACATGCACACACAAATATTAT [TGCATGCA_site204],8.9 ± 0.29
2,TATATTTATGTATATGTGCACATAAATTTAAGAATG [GTGCAC_site9512],8.845 ± 0.078
3,ATAGCCAAAAATCATGCACACCTAAAAAAAAAAAAA [CACACA_site8826],8.27 ± 0.41
4,GTATATATATTTGTACGTACATATTGTTGTAAACAC [XGTACX_site8833],8.97 ± 0.23
5,TTTTTTATTGTGATACGTATATTATTTTATGATTAA [GTGCAC_negctrl_site202],8.74 ± 0.4
6,AAGAGAGACATCAACACACATACGTATGTATAGAAA [CACACA_site1397],8.56 ± 0.71
7,TTCATTTTAATAATATGTACATAATATATTTAAAAA [XGTACX_site634],8.53 ± 0.25
8,AAAAACTTAATATTCACACATATATATATATATATA [CACACA_site5240],10.2 ± 0.45
9,TATTTCCATTCATAATTTTGTAGAATATATAACCGT [CACACA_negctrl_site1531],8.4 ± 0.47
10,CGTATATATATATACACACACATATATATATGTAAA [CACACA_site195],8.75 ± 0.38
11,AAAAAAAAAAATTACACACATACATATAATAATAAT [CACACA_site2193],8.48 ± 0.38
12,ATATATATAAAATATACACACATACTGTTCATTTAA [CACACA_site6149],8.46 ± 0.22
13,TTTACAAAAAATTATACACACACGTACATATAAATA [CACACA_site945],8.55 ± 0.23
14,TTTTATTATTAATTTCTTTTTTCTCATCACTTTCAA [XGTACX_negctrl_site117],8.56 ± 0.61
15,TAATTTATGAGTAATACACACACTTGTGGATATATT [CACACA_site3790],8.28 ± 0.45
16,AAATATTATTTATTTACACACCAATCTTCTTTTCTT [CACACA_site3990],8.4 ± 0.3
17,GAAAAATTTTTATATGTGCACATGTTATATATAATT [GTGCAC_site9742],9.07 ± 0.33
18,TACGTTCTAATATATACACACCTGGTATTAATTATG [CACACA_site5260],8.69 ± 0.33
19,AGGCACACAAACATATGTACACATATATATATATAT [XGTACX_site4723],9.98 ± 0.38
20,TTTTGTTTTAATTTTATTTGATTTTATTTGATTTAT [CACACA_negctrl_site692],8.48 ± 0.52
21,ATATTTATATGGTTTGCACACATAACAACTATGGTT [CACACA_site3631],8.72 ± 0.38
22,ATATAACATATCAATTGTACGTATTGATAATATATA [XGTACX_site2504],8.44 ± 0.3
23,TTTATTGAACGTACACATATATATATGTATATATTT [TGCATGCA_negctrl_site141],8.68 ± 0.15

row,Sequence,gcPBM binding intensity (ln)
1,TTATTTTTTTTATATATATGTATAAATATATATATA [XGTACX_negctrl_site441],9.16 ± 0.28
2,AAAAAAAAAAATCCAGTGCATATATTTTTTACATAT,8.53 ± 0.042
3,ATTACATTAATAAGAGTGCATTATATAAGTTTTATG,8.43 ± 0.13
4,GACAAAATGATAGGGACACACAATATCAATGTTTAA [CACACA_site765],8.38 ± 0.45
5,TCAATCATCTTATATAGTACACATAAAAGTATTATA [XGTACX_site8513],8.41 ± 0.31
6,CCACTAATAAATATTACACACATATAGATTTATATT [CACACA_site7465],8.41 ± 0.44
7,CAAAAGGATATGCACACACACACACGGATATTTATA [CACACA_site7099],8.64 ± 0.45
8,TTTTGTTATTAGAGGGTGCTTATAATGAACTCCTAC,8.65 ± 0.19
9,AAACATATATACATATGTACATATATACATATATGT [XGTACX_site5779],8.4 ± 0.26
10,TATAAACCTTTTTGCACGCACACAAAAAAAAAATAA [CACACA_site168],8.61 ± 0.24
11,GATTAACAACATATTAGTACATATATTATATATATA [XGTACX_site7646],8.98 ± 0.2
12,GACTATAATGTTTTGGTGCGTCATGTTATGGTCATC,8.62 ± 0.35
13,TTCGGAAAAATTAAAGCACACAAAAAAAAATAAAAA [CACACA_site8296],8.62 ± 0.41
14,CACCCCCACAGACACACACACACACCGATATATATA [CACACA_site8010],9.49 ± 0.49
15,TATAATTTAACGACATGTACATATAAAAAAATATTT [XGTACX_site2395],8.89 ± 0.42
16,CATATTTTATTATATACATGCAATTTTAATATATAT [TGCATGCA_site544],8.59 ± 0.25
17,TTATTTATATTTTTTTGTACACATATTGTATACATA [XGTACX_site1178],8.78 ± 0.41
18,TGTAGATTTTGTAACACACACATATAAATACCTATA [CACACA_site7183],8.6 ± 0.49
19,ATACACATTCTTCCGACATAATAAGAAAAAGAAAAA [CACACA_negctrl_site9],8.46 ± 0.49
20,AAAATGTATTCTCTCATGCACACTTTCTTTAAGGGA [CACACA_site2196],8.42 ± 0.28
21,ATCTCTTATATATTCACACACATATATATAATTATA [CACACA_site1502],8.85 ± 0.42
22,AAATATAATAACGAACGTACTTATTATAATTTGTAA [XGTACX_site2342],8.32 ± 0.25
23,TATTTATATATATGATGTACATAAGGTGTAATGTTA [XGTACX_site5591],8.82 ± 0.46

row,Sequence,gcPBM binding intensity (ln)
1,ATATATATTTAATGTTGTACATAAAAAATATATAAA [XGTACX_site7774],8.32 ± 0.29
2,TACATGAATATTTATACATGCACACTAAAATAAAGA [TGCATGCA_site611],8.96 ± 0.21
3,TATTTACATACAAAATGTACAAAAATATATTTTTTT [XGTACX_site888],8.42 ± 0.37
4,TATTAACACAATAGCGCACACTTTTAATATTTTATA [CACACA_site1617],8.79 ± 0.33
5,AAAGAATACAAAATTGCACACATATTGTGAAAATGT [CACACA_site9327],8.59 ± 0.38
6,ATATAATGTTGTAATAGTACTTTTTTCATATAAATA [XGTACX_site2666],8.55 ± 0.38
7,CTTAAATTGAAATGTTGTACAAAGTAAAAACAATGA [XGTACX_site2123],8.74 ± 0.43
8,ATTTCTAAATGTTGGTGTACGTTTTTTTATAACCTT [XGTACX_site1752],8.98 ± 0.68
9,ATTATTTAAAAAAAATGTACATAATAAATATGAACG [XGTACX_site4010],8.31 ± 0.23
10,AATAAATGGAATGTCACACATATATATATATATATA [CACACA_site4869],10.2 ± 0.37
11,AAAAAAAAGAAAGAAAGTACAAATTATAAAATGAAC [XGTACX_site860],8.87 ± 0.47
12,TAAATTAAAAAACACACACACAAAAAAAAAAAAAAA [CACACA_site2263],8.29 ± 0.35
13,AGTGTATGTATATAAACACACATACATATTTATAAC [CACACA_site6777],8.53 ± 0.28
14,TACAAAAAAATAAATAATAAAAAAAAATATATATAA [XGTACX_negctrl_site344],8.38 ± 0.38
15,TTGATATTATTGTATAAACATAATAGAGATAAAGAG [TGCATGCA_negctrl_site455],8.82 ± 0.33
16,CAGGTGCACTATATTACACACGCTTCTTTTTTTTTA [CACACA_site2069],9.95 ± 0.98
17,AACATGTTAACTAAATGTACACACCTATGTTGATGT [XGTACX_site3777],8.54 ± 0.35
18,TGAAGGATATATTCCGTGCACATATAAATATATACA,8.735 ± 0.007
19,GGAAAACACAAAAACTGTACATTTATTCAACATATA [XGTACX_site5831],8.62 ± 0.47
20,TATATACATATATACACACACATATATATATATATA [CACACA_site2805],9.98 ± 0.45
21,ATAGGTAAAAAGTATACACACGTTGACACATTCTTT [CACACA_site4794],8.52 ± 0.58
